Source: paper PMC4242493
The other results are listed elsewhere or left out. The list includes weakly bound sequences.

Molecular target: MaxL homodimer (UniProt P61244)
Assay: universal protein-binding microarray (PBM)
Conditions: PBS-based mixture, 10 nM His-tagged protein dimer, 2% milk, 200 ng/uL BSA, 50 ng/uL salmon testes DNA, 0.02% TX-100; detection with Alexa 488 anti-His …; high values mean tight binding; most listed sequences are background and not binding sites; double strand, one strand shown

UniProt P61244, sequence (P61244 whole entry): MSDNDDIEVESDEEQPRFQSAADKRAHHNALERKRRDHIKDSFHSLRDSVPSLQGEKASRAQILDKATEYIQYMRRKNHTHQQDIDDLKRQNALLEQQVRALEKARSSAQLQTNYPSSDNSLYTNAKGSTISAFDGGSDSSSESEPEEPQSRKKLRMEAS

Sequence | binding signal (normalized occupancy)
CTTTCGCC | 0.0709
TGACTAAA | 0.0728
AGACGCAG | 0.069
TCGTAAAA | 0.0794
CCATGTCA | 0.0838
CATTCCGC | 0.077
ATTAGTCA | 0.0775
ATGACGAG | 0.0829
GAGGTGAC | 0.0727
CGGGTCGC | 0.0743
GGAGTCAC | 0.0757
ATACAATC | 0.0757
AGCTCAGC | 0.0688
CAAGAATC | 0.076
GATCCATC | 0.0795
GCCACAAC | 0.077
CAGTTGCC | 0.0701
AATTGTAT | 0.0798
CAAATTGG | 0.0737
CAAAACTC | 0.0702
CATGATCG | 0.0869
ATGTTGGG | 0.0795
CCCGCATC | 0.0765
ACACATTA | 0.0926
AAACTACA | 0.0812

Sequence | binding signal (normalized occupancy)
CGAGACAA | 0.0709
TACTCAAA | 0.0761
AGTTTGTC | 0.0692
GGCTGGCA | 0.0683
GCCGTAAA | 0.0705
CATATCCC | 0.0889
CCAGAACC | 0.0732
CATTCAGA | 0.0779
ATAACCAT | 0.0835
CCGGCGTC | 0.0681
AACCTGCG | 0.0708
CTCGCCGC | 0.0695
GCCCCAGC | 0.0685
ACTAGCTA | 0.0697
CATCCGGG | 0.0755
AGACTGCT | 0.0699
GCGCTTCC | 0.0759
GCCAAGAA | 0.0725
TACAACCA | 0.0807
CGTCGGCA | 0.0746
AATGTGCC | 0.0816
ACTGCTTG | 0.0729
GCGAAAAA | 0.0719
TCAGAAGA | 0.0734
ACTGGTTG | 0.0719

Sequence | binding signal (normalized occupancy)
ACATATGT | 0.0906
CATTTCCG | 0.0753
GCCGAGGA | 0.0719
ACGCCGGC | 0.0683
GGTGCTTA | 0.0737
ACAAGTAG | 0.0776
ATAGGCGG | 0.0747
AACGTAAA | 0.0808
ATCTGAAC | 0.0828
ACGTAAAG | 0.078
GGGCTTGA | 0.0718
GGACTTTA | 0.0684
AACGTAAG | 0.07
GTGTCCCA | 0.0768
ACCATCTA | 0.0832
TCAGAACA | 0.0736
ACAAGTAC | 0.0777
ATAAGCTG | 0.0801
ACAATCAC | 0.0815
CCAACTCA | 0.0733
GCCAGGCA | 0.0698
GATACATA | 0.0832
AACAGGCC | 0.0668
CGGTAATA | 0.0778
GCAGAGTA | 0.0701

Sequence | binding signal (normalized occupancy)
AGTCGATA | 0.0744
GCTAGAGA | 0.0773
GGAGTAGA | 0.0773
AGATCTAG | 0.0767
TATAAAGA | 0.0757
AAGCTGTC | 0.0726
CTCATCCA | 0.0825
CTGTACGA | 0.0731
CCTCTTAC | 0.0756
AATATTAT | 0.0854
AGGTAAGA | 0.0704
AGCGATCG | 0.0723
CTCTGTAA | 0.0819
ACCAGCGT | 0.0751
AGCCTGGC | 0.0709
AAATGAAA | 0.0762
CAGCTCGG | 0.0628
GCCCGCAA | 0.0684
ACCTGTCC | 0.0789
TCTTGGAA | 0.0712
AGGCGAAA | 0.069
CAAAACGC | 0.0707
GCCTATAA | 0.0799
ACTCCACC | 0.0771
CATTTGCC | 0.0734

Sequence | binding signal (normalized occupancy)
AACTGCAC | 0.0731
GTCCATAA | 0.0795
ACTTAGCT | 0.0686
CGATCACA | 0.0846
ACAAACAC | 0.0794
AACGGCAA | 0.0694
ACCCTATG | 0.0778
CACTCATA | 0.0823
CGCGGACC | 0.0689
CGAATACG | 0.0739
CTGCTTTA | 0.0757
CCAGGTAC | 0.0724
CGTCAGTC | 0.069
GCATTTAA | 0.0769
GTTGACTA | 0.0722
ATCCTGGG | 0.079
CTCATTCC | 0.0776
TCTTAGAA | 0.0718
AAATTAGT | 0.0734
CAATTTCC | 0.0744
CGCTTGTC | 0.0746
AGTATGGG | 0.0836
GTTTCATA | 0.0788
TCCAAGAA | 0.0684
AATTCATA | 0.0762

Sequence | binding signal (normalized occupancy)
ATCGGTTG | 0.075
CGATGGCA | 0.0733
CAATTAGA | 0.0751
GCTTGTGA | 0.074
CGCTGTAC | 0.0766
ACTAATGG | 0.0751
GCGATCTA | 0.075
CACTTACG | 0.0712
ATCGTTCA | 0.0794
TCGCAAAA | 0.0729
ACGTCGCA | 0.0756
ACCCTTAT | 0.0822
GGAGTCTA | 0.0742
ACTTAATC | 0.0742
CTCGCGAC | 0.077
ACGATCCA | 0.0807
AACCAAGG | 0.0712
GACGTGGC | 0.0846
CGGGAACA | 0.0761
CGTGACCA | 0.0992
TAGCCACA | 0.0813
CACAAGTG | 0.0771
GGCCAATA | 0.0771
GGGCCACA | 0.0741
CGCTCGGC | 0.0706

Sequence | binding signal (normalized occupancy)
CTGAGCTA | 0.0702
CACTACAC | 0.0835
CCAAGAAG | 0.0679
ATACCTCA | 0.0778
ACACCACA | 0.083
AGAATCAA | 0.0736
GTATTTAA | 0.0808
CCCGTGTA | 0.0861
AAGCGGCT | 0.069
CCAGGAGA | 0.0744
ATCACCCG | 0.0787
ACTGTAAG | 0.0733
GACCTGCA | 0.071
AATTACAG | 0.0778
CAGCACAC | 0.0857
GGTGAACC | 0.0721
CGCGTACG | 0.0773
CACCCGTC | 0.0736
CCCCTTGC | 0.0765
CTTCTGCA | 0.0742
CGCCAAAA | 0.0642
AACGTGAA | 0.0849
